US20220411523A1 (HEFEI HANKEMAB BIOTECHNOLOGY, published 2022)

T1: monkey 4-1BB (Cy4-1BB) (SEQ ID No.6), coated on the ELISA plate (monkey, UniProt Q07011 24-186 (human entry), limits assumed)
T1 chain: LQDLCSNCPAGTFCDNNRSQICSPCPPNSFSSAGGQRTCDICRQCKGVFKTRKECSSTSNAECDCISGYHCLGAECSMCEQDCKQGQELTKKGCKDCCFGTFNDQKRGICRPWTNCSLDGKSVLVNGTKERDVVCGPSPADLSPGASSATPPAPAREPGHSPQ

B1: scFvB60302 (scFv)
scFv: QVQLQESGPGLVKPSETLSLTCTVSGSSLTSYGVHWVRQPPGKGLEGLGVIWPGGSTNYNSALMSRLTISKDNSKSQVSLKMSSLTAADTAMYYCARVTGTWYFDVWGQGTTVTVSSGGGGSGGGGSGGGGSDIQMTQSPSSLSASLGDRVTISCSASQGISNYLNWYQQKPDGTVKLLIYYTSTLHSGVPSRFSGSGSGTDFTLTISSLQPEDVATYYCQQYSKLPWTFGGGTKLEIKDKRV[human IgG4 Fc with S228P (EU numbers) cut from this listing]
notes: the whole entry is the construct
B2: scFvB60103 (scFv)
scFv: B1 scFv with L20I
B3: scFvB60201 (scFv)
scFv: B1 scFv with L67V, L147V
notes: as for B1
B4: scFvB60202 (scFv)
scFv: B1 scFv with L67V
notes: as for B1
B5: scFvB60203 (scFv)
scFv: B1 scFv with L67V, F203Y, V215I
notes: as for B1
B6: scFvB60301 (scFv)
scFv: B1 scFv with L147V
notes: as for B1
B7: scFvB60401 (scFv)
scFv: B1 scFv with L20I, L147V
notes: as for B1
B8: scFvB60403 (scFv)
scFv: B1 scFv with L20I, F203Y, V215I
notes: as for B1

Biological target: T1, monkey 4-1BB (Cy4-1BB) (SEQ ID No.6), …
Experiment: ELISA, coated monkey 4-1BB
Binder B1 has an EC50 of 0.0566 µg/mL.
B2 showed an EC50 of 0.0217 µg/mL.
For B3, the EC50 was 0.0698 µg/mL.
In the case of B4, the EC50 is reported as 0.0608 µg/mL.
Binder B5 has an EC50 of 0.0367 µg/mL.
B6 was tested, and the EC50 was 0.0517 µg/mL.
In the case of B7, the EC50 is reported as 0.772 µg/mL.
Binder B8 has an EC50 of 0.108 µg/mL.

Each binder was assayed against T2, human 4-1BB full length, on the cell surface (human, UniProt Q07011 24-255) (assay: FACS, CHO-K1-hu4-1BB cells).
T2 construct: also called CHO-K1-hu4-1BB; WT (Human 4-1BB full length, Expi293 transient)
B2 showed an EC50 of 1.8 µg/mL.

What follows are binders tested against T3, human 4-1BB (SEQ ID No.5), coated on the ELISA plate (human, UniProt Q07011 24-186, limits assumed) (assay: ELISA, coated human 4-1BB).
T3 construct: also called CD137
Binder B1 has an EC50 of 0.0975 µg/mL.
B2 showed an EC50 of 0.0447 µg/mL.
Binder B3 has an EC50 of 0.165 µg/mL.
B4 was tested, and the EC50 was 0.153 µg/mL.
B5 was tested, and the EC50 was 0.0824 µg/mL.
With B6 the EC50 was 0.0766 µg/mL.
Work on B7 yielded an EC50 of 1.04 µg/mL.
B8 showed an EC50 of 0.195 µg/mL.

Substitutions are numbered along the chain they refer to.
